From patent US10501444B2, “Inhibitors of influenza virus replication, application methods and uses thereof” (SUNSHINE LAKE PHARMA CO., LTD., priority 2016, dated 2019)

Assay: Pharmacokinetic evaluation after intravenous or oral administration to SD rat
Conditions: in vivo, iv, 1 mg/kg

O=C(O)C1C2CCC(CC2)C1Nc1nc(-c2c[nH]c3ncc(F)cc23)ncc1F (racemic) [VX-787 (racemization)]
AUC(0-inf): 1210 ng·h/mL
AUC(0-t): 1180 ng·h/mL
half-life: 5.72 h
